These are yes or no findings as the source states them, for the method shown. For some of these results: Binding seen in cells or lysates may run through a third protein. Some results given as binding are weak or reduced against the parent protein; the word gives no strength. For some of these results: Tags and fused reporters may be left off the sequences shown.
T1: LexA-KIF1C (amino acids 261-800) (UniProt O43896)
T1 sequence: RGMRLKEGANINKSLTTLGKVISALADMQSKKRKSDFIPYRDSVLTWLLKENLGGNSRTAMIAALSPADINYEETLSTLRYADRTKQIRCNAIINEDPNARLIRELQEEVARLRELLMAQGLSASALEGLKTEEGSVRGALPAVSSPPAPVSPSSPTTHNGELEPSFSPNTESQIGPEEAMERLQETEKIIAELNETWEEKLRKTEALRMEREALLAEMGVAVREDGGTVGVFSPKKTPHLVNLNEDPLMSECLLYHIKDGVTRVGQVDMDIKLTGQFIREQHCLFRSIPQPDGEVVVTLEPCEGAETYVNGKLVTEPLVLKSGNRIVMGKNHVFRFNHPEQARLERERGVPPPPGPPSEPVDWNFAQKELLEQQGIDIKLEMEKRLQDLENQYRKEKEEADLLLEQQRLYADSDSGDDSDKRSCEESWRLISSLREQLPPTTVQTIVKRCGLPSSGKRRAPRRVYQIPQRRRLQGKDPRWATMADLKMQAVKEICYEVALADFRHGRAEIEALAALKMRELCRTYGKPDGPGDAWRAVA

Sequences of proteins named here, by UniProt entry; tags and fusion partners are left off. Residues count along the entry.
UniProt P62993: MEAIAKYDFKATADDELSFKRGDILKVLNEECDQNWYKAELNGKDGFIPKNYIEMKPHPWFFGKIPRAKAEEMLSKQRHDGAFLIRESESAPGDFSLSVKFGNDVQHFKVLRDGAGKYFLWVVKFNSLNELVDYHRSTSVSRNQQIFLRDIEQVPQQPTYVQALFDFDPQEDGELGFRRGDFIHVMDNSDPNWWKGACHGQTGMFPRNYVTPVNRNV
UniProt P33176, residues 265-639: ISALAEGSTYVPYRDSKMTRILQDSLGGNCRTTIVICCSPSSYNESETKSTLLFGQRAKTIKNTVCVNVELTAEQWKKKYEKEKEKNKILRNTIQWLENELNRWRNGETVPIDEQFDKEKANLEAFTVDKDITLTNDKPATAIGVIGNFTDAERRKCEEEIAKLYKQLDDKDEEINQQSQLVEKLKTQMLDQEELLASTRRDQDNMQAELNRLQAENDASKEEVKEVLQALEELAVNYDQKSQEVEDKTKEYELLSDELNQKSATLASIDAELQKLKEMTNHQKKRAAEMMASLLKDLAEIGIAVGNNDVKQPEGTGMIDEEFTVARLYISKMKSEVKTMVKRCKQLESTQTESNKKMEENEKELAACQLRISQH

T2: GST-KIF1Bα(270–641) fusion protein (human) (UniProt O60333)
T2 sequence: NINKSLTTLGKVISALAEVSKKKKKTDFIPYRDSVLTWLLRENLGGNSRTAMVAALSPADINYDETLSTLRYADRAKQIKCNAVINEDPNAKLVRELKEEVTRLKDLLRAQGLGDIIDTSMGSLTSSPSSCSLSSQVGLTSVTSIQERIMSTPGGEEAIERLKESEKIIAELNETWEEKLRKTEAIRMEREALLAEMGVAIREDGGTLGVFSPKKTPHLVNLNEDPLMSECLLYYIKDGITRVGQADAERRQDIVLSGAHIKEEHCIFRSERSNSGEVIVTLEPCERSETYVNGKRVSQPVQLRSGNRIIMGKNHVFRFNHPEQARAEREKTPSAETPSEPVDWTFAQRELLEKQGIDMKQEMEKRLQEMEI

T3: KIF1B (construct of the experiments with KBP fragments, data not shown) (human) (UniProt O60333)
T3 sequence: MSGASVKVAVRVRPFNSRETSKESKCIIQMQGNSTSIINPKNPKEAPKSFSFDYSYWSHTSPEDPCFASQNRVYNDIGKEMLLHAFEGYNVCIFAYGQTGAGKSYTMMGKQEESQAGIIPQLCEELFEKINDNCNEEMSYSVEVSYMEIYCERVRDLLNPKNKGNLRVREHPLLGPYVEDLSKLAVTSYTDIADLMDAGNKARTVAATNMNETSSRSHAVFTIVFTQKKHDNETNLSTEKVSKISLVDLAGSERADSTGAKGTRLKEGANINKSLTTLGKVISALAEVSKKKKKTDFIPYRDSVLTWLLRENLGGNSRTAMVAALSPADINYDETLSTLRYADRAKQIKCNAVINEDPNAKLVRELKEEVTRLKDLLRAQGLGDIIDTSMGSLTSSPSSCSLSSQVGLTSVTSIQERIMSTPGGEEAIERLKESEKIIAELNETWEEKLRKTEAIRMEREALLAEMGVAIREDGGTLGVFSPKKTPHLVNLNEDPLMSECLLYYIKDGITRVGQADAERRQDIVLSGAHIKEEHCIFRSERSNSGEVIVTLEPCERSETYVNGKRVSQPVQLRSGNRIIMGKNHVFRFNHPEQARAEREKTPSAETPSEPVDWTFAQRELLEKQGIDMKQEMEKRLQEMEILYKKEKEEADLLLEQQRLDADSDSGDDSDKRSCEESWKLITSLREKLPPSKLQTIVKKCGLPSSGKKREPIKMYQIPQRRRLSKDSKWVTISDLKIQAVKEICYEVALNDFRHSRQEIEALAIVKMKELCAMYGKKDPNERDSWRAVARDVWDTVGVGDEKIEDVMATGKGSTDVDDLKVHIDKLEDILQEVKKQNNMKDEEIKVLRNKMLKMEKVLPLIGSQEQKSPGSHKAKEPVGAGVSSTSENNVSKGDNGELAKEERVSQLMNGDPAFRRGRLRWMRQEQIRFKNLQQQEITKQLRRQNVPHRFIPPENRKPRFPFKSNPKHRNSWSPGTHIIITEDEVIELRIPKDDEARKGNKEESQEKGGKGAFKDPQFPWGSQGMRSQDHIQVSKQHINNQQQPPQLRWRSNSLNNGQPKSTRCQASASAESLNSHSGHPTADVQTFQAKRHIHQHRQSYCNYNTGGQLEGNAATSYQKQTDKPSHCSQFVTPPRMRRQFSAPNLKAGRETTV


Experiments:
[1] = target: T1, LexA-KIF1C (amino acids 261-800); test: two-hybrid; LexA-KIF1C fragment as bait (pBTM116) in S. cerevisiae L40; brain cDNA library fused to the GAL4 activation domain (pACT2); 5 x 10^6 transformants; His+ β-Gal+ colonies, retransformed
[2] = target: T2, GST-KIF1Bα(270–641) fusion protein (human); test: pull-down; 1 μg of GST fusion protein on glutathione-Sepharose incubated 4 hours at 4°C with lysate of 293 cells transiently overexpressing KBP or KBPΔ250–281; washed with HNTG buffer; blotted with GST-KBP antiserum; only the target purified
GST-Grb2 fusion protein = GST-Grb2 fusion protein (UniProt P62993); test: as above
[3] = target: GST-KIF5B (amino acids 265–639) (human) (UniProt P33176); test: as above
[4] = target: T3, KIF1B (construct of the experiments with KBP fragments, data not shown) (human); test: pull-down; experiments using GST-fusion proteins (data not shown); which partner carried GST is not told

Row | binding [4] | Binder | binding [2] | also measured
1 | – | KBP (KIF1 binding protein), GAL4 activation domain fusion from a brain cDNA library (protein, UniProt Q96EK5 1-621) MANVPWAEVCEKFQAALALSRVELHKNPEKEPYKSKYSARALLEEVKALLGPAPEDEDERPEAEDGPGAGDHALGLPAEVVEPEGPVAQRAVRLAVIEFHLGVNHIDTEELSAGEEHLVKCLRLLRRYRLSHDCISLCIQAQNNLGILWSEREEIETAQAYLESSEALYNQYMKEVGSPPLDPTERFLPEEEKLTEQERSKRFEKVYTHNLYYLAQVYQHLEMFEKAAHYCHSTLKRQLEHNAYHPIEWAINAATLSQFYINKLCFMEARHCLSAANVIFGQTGKISATEDTPEAEGEVPELYHQRKGEIARCWIKYCLTLMQNAQLSMQDNIGELDLDKQSELRALRKKELDEEESIRKKAVQFGTGELCDAISAVEEKVSYLRPLDFEEARELFLLGQHYVFEAKEFFQIDGYVTDHIEVVQDHSALFKVLAFFETDMERRCKMHKRRIAMLEPLTVDLNPQYYLLVNRQIQFEIAHAYYDMMDLKVAIADRLRDPDSHIVKKINNLNKSALKYYQLFLDSLRDPNKVFPEHIGEDVLRPAMLAKFRVARLYGKIITADPKKELENLATSLEHYKFIVDYCEKHPEAAQEIEVELELSKEMVSLLPTKMERFRTKMALT | – | binding [1]: binds
2 | – | KBP, overexpressed in 293 cells (protein, UniProt Q96EK5 1-621) MANVPWAEVCEKFQAALALSRVELHKNPEKEPYKSKYSARALLEEVKALLGPAPEDEDERPEAEDGPGAGDHALGLPAEVVEPEGPVAQRAVRLAVIEFHLGVNHIDTEELSAGEEHLVKCLRLLRRYRLSHDCISLCIQAQNNLGILWSEREEIETAQAYLESSEALYNQYMKEVGSPPLDPTERFLPEEEKLTEQERSKRFEKVYTHNLYYLAQVYQHLEMFEKAAHYCHSTLKRQLEHNAYHPIEWAINAATLSQFYINKLCFMEARHCLSAANVIFGQTGKISATEDTPEAEGEVPELYHQRKGEIARCWIKYCLTLMQNAQLSMQDNIGELDLDKQSELRALRKKELDEEESIRKKAVQFGTGELCDAISAVEEKVSYLRPLDFEEARELFLLGQHYVFEAKEFFQIDGYVTDHIEVVQDHSALFKVLAFFETDMERRCKMHKRRIAMLEPLTVDLNPQYYLLVNRQIQFEIAHAYYDMMDLKVAIADRLRDPDSHIVKKINNLNKSALKYYQLFLDSLRDPNKVFPEHIGEDVLRPAMLAKFRVARLYGKIITADPKKELENLATSLEHYKFIVDYCEKHPEAAQEIEVELELSKEMVSLLPTKMERFRTKMALT | binds | binding (GST-Grb2 fusion protein): no binding; binding [3]: no binding
3 | binds | KBP, first 305 amino acids (domain or fragment, UniProt Q96EK5 1-305) MANVPWAEVCEKFQAALALSRVELHKNPEKEPYKSKYSARALLEEVKALLGPAPEDEDERPEAEDGPGAGDHALGLPAEVVEPEGPVAQRAVRLAVIEFHLGVNHIDTEELSAGEEHLVKCLRLLRRYRLSHDCISLCIQAQNNLGILWSEREEIETAQAYLESSEALYNQYMKEVGSPPLDPTERFLPEEEKLTEQERSKRFEKVYTHNLYYLAQVYQHLEMFEKAAHYCHSTLKRQLEHNAYHPIEWAINAATLSQFYINKLCFMEARHCLSAANVIFGQTGKISATEDTPEAEGEVPELYHQ | – | –
4 | – | KBPΔ250–281 (protein, UniProt Q96EK5) MANVPWAEVCEKFQAALALSRVELHKNPEKEPYKSKYSARALLEEVKALLGPAPEDEDERPEAEDGPGAGDHALGLPAEVVEPEGPVAQRAVRLAVIEFHLGVNHIDTEELSAGEEHLVKCLRLLRRYRLSHDCISLCIQAQNNLGILWSEREEIETAQAYLESSEALYNQYMKEVGSPPLDPTERFLPEEEKLTEQERSKRFEKVYTHNLYYLAQVYQHLEMFEKAAHYCHSTLKRQLEHNAYHPIEWQTGKISATEDTPEAEGEVPELYHQRKGEIARCWIKYCLTLMQNAQLSMQDNIGELDLDKQSELRALRKKELDEEESIRKKAVQFGTGELCDAISAVEEKVSYLRPLDFEEARELFLLGQHYVFEAKEFFQIDGYVTDHIEVVQDHSALFKVLAFFETDMERRCKMHKRRIAMLEPLTVDLNPQYYLLVNRQIQFEIAHAYYDMMDLKVAIADRLRDPDSHIVKKINNLNKSALKYYQLFLDSLRDPNKVFPEHIGEDVLRPAMLAKFRVARLYGKIITADPKKELENLATSLEHYKFIVDYCEKHPEAAQEIEVELELSKEMVSLLPTKMERFRTKMALT | no binding | –
5 | binds | KBP mutant lacking the first 214 amino acids (domain or fragment, UniProt Q96EK5 215-621) AQVYQHLEMFEKAAHYCHSTLKRQLEHNAYHPIEWAINAATLSQFYINKLCFMEARHCLSAANVIFGQTGKISATEDTPEAEGEVPELYHQRKGEIARCWIKYCLTLMQNAQLSMQDNIGELDLDKQSELRALRKKELDEEESIRKKAVQFGTGELCDAISAVEEKVSYLRPLDFEEARELFLLGQHYVFEAKEFFQIDGYVTDHIEVVQDHSALFKVLAFFETDMERRCKMHKRRIAMLEPLTVDLNPQYYLLVNRQIQFEIAHAYYDMMDLKVAIADRLRDPDSHIVKKINNLNKSALKYYQLFLDSLRDPNKVFPEHIGEDVLRPAMLAKFRVARLYGKIITADPKKELENLATSLEHYKFIVDYCEKHPEAAQEIEVELELSKEMVSLLPTKMERFRTKMALT | – | –

From article PMC1266353
